The values below come from article PMC4336329 (PLoS ONE, 2015).

About 14,000 (4.5%) of roughly 310,000 compounds showed an effect of 50% or more. Effects have a minus sign here. The list shows a part of the results.
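Note: peak tail current of the secondary pulse compared with the same well before compound.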

For this experiment, the target named is human ether-à-go-go-related gene (hERG) potassium channel (human, UniProt Q12809). Briefly: primary screen, population patch clamp on CHO cells stably expressing hERG.
human ether-à-go-go-related gene (hERG) potassium channel, sequence (Q12809 whole entry, looked up): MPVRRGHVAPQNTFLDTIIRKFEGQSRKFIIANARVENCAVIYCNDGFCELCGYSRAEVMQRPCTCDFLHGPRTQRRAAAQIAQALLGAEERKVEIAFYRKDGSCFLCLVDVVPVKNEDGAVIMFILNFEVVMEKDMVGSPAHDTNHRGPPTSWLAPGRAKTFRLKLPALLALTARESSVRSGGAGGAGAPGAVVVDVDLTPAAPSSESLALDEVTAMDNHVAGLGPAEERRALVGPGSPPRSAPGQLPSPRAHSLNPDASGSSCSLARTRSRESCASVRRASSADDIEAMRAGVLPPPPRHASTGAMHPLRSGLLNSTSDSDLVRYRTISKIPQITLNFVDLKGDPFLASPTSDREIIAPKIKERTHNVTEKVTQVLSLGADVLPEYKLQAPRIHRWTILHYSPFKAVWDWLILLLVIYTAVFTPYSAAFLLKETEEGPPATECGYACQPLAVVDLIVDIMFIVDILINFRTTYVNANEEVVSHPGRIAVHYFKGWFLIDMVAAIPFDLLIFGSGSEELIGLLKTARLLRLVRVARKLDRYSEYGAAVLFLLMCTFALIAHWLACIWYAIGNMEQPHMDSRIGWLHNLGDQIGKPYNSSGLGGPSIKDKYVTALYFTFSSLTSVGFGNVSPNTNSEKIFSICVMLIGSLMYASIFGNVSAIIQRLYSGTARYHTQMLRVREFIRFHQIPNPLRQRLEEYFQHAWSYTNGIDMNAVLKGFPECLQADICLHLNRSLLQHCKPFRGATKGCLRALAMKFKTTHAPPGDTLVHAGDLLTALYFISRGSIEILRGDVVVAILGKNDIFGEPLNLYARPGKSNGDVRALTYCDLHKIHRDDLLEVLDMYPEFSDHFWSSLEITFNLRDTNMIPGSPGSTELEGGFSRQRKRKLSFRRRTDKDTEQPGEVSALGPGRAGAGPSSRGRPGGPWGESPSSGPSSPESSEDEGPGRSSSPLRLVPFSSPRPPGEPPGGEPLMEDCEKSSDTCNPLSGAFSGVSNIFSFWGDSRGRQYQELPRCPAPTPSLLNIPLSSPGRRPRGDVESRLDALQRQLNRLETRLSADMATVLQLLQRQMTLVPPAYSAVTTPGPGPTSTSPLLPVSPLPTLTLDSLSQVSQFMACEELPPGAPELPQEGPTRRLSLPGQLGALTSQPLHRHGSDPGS
For `COc1ccc(Nc2nc(N3CCN(S(=O)(=O)N(C)C)CC3)nc3ccccc23)cc1`, the “hERG current change (%, negative = inhibition) at 10uM” value was -5.03%.
Take `O=C(Nc1ccccc1)c1ccc(Cn2cc(C(F)(F)F)ccc2=O)cc1`: the “hERG current change (%, negative = inhibition) at 10uM” value is given as -14%.
Consider `O=C(NC1CCN(S(=O)(=O)c2ccccc2F)CC1)c1ccco1`, for which the “hERG current change (%, negative = inhibition) at 10uM” value is on record as -4.61%.
For the compound `CCCn1c(N)c(Sc2ccc([N+](=O)[O-])cc2)c(=O)n(CCC)c1=O`, the “hERG current change (%, negative = inhibition) at 10uM” value is -83.8%.
With `O=C(NC1CCN(C(=S)NCCc2ccccc2)CC1)C1CC1`, the “hERG current change (%, negative = inhibition) at 10uM” value was -18.4%.
On to `CC(=O)Nc1cccc(NC(=O)C2C3C=CC(C3)C2C(=O)O)c1` (centres unmarked), for which the “hERG current change (%, negative = inhibition) at 10uM” value turned out to be 18.7%.
Consider `CN(C)c1ccc(/C=N/NC(=O)Cn2nnc3ccccc32)cc1`, for which the “hERG current change (%, negative = inhibition) at 10uM” value was determined as 1.44%.
The figure for `CC1(C)NC(=O)N(CC(O)COc2ccc(N3C(=O)c4ccccc4C3=O)cc2)C1=O` (centres unmarked) is 6.56%; for `COc1cc(-c2cc(C(=O)Nc3ccc(N4CCOCC4)cc3)c3ccccc3n2)cc(OC)c1OC` it is 6.95%; for `CC(C)NC(=O)c1onc(CSc2ccc(Cl)cc2)c1C(=O)NC(C)C` it is -23.1%.
As for `CC(=O)c1ccc(N2CCN(C(=O)c3cn(Cc4ccccc4)nc3-c3cccnc3)CC2)c(F)c1`, the “hERG current change (%, negative = inhibition) at 10uM” value was -50.2%.
Regarding `COc1ccc(C(=O)CSc2cc(C)nc(SCC(=O)c3ccc(C)cc3)n2)cc1`, the “hERG current change (%, negative = inhibition) at 10uM” value is reported as 8.17%.
The figure for `CCOC(=O)N1CCN(C(=O)c2ccccc2-c2ccccc2)CC1` is 14.5%; for `Cc1cccc(NC(=O)C2C(C(=O)O)C3C=CC2C32CC2)c1C` (centres unmarked) it is -4.79%.
The figure for `O=C(Nc1nnc(SCCC2OCCO2)s1)C1CC(=O)N(c2ccccc2)C1` (centres unmarked) is -26.5%.
For the compound `Cc1ccc(C(=O)OCC(=O)Nc2ccccc2)cc1S(=O)(=O)N1CCCCC1`, the “hERG current change (%, negative = inhibition) at 10uM” value turned out to be 1.85%.
Consider `COCCCN(C(C)=O)c1nc(-c2ccc(OC)cc2)cs1`, for which the “hERG current change (%, negative = inhibition) at 10uM” value is reported as -16.5%.
As to `CCn1c(=O)n(CC)c2cc(S(=O)(=O)N3CCCCC3)c(C)cc21`, the “hERG current change (%, negative = inhibition) at 10uM” value is listed as -0.0962%.
In the case of `Oc1ccc(/C=C/c2ccnc3ccccc23)cc1`, the “hERG current change (%, negative = inhibition) at 10uM” value is listed as 8.68%.
With `COc1ccc(S(=O)(=O)N2CCC(C(=O)NC3CC3)CC2)cc1`, the “hERG current change (%, negative = inhibition) at 10uM” value came to 9.61%.
Regarding `CC(C)(C)c1ccc(/C=C/C(=O)O)s1`, the “hERG current change (%, negative = inhibition) at 10uM” value is recorded as 10.2%.
As to `N#CC(=C=[N-])c1nc2ccccc2nc1-[n+]1cccc(NC(=O)c2ccc(F)cc2)c1`, the “hERG current change (%, negative = inhibition) at 10uM” value is listed as 17.4%.
As to `O=C(O)C1C2CCC(O2)C1C(=O)Nc1ccc(Br)cc1F` (centres unmarked), the “hERG current change (%, negative = inhibition) at 10uM” value worked out at 17.3%.
The figure for `CC(=O)Nc1ccc(S(=O)(=O)N2CN(c3ccc(C)cc3)c3nc4ccccc4nc32)cc1` is 6.22%.
On to `COc1cccc(NC(=O)C(NCC(C)(C)CN(C)C)c2ccccc2)c1.O=C(O)C(=O)O` (centres unmarked), for which the “hERG current change (%, negative = inhibition) at 10uM” value is listed as -48.4%.
The figure for `Cc1ccc(C(=O)N2CCN(c3ccccn3)CC2)cc1C` is -5.19%; for `Clc1ccc2oc(SCc3cccnc3)nc2c1` it is -16.2%.
As for `C=CCn1cc(-c2ccc(Cl)cc2)cc(C#N)c1=O`, the “hERG current change (%, negative = inhibition) at 10uM” value is recorded as -7.98%.
As for `Cc1ccc(S(=O)(=O)N(C)CC(O)Cn2c3ccccc3c3ccccc32)cc1` (centres unmarked), the “hERG current change (%, negative = inhibition) at 10uM” value is 17.5%.
Regarding `CCc1ccc(N2CSC3=C(C#N)C(c4cccs4)CC(=O)N3C2)cc1` (centres unmarked), the “hERG current change (%, negative = inhibition) at 10uM” value is reported as -3%.
For the compound `CN(CC(=O)Nc1ccccc1Cl)C(=O)c1ccc(-c2cccc(C(F)(F)F)c2)o1`, the “hERG current change (%, negative = inhibition) at 10uM” value is reported as -10.2%.
In the case of `O=C(COc1ccc(/C=N/NC(=O)c2ccncc2)cc1)Nc1ccc([N+](=O)[O-])cc1`, the “hERG current change (%, negative = inhibition) at 10uM” value is -9.27%.
Regarding `CCN(CC(=O)NCc1cccs1)C(=O)COc1cccc(C(F)(F)F)c1`, the “hERG current change (%, negative = inhibition) at 10uM” value was -38.2%.
The figure for `CCS(=O)(=O)N1CCN(S(=O)(=O)c2ccc(F)cc2)CC1` is -18.4%; for `COc1ccccc1N1CCN(CCCn2c(=S)[nH]c3ccccc3c2=O)CC1` it is -61.6%.
Turning to `Cc1ccc(N2CCN(C(=S)Nc3ccc(Cl)cc3)CC2)cc1`, the “hERG current change (%, negative = inhibition) at 10uM” value stood at 20.4%.
In the case of `O=[N+]([O-])/C(C(Cl)=C(Cl)Cl)=C(/NC1CC1)Sc1ccccc1`, the “hERG current change (%, negative = inhibition) at 10uM” value is 7.59%.
The figure for `Clc1ccc(-c2nnc(CSc3nnc(-c4cccs4)o3)o2)cc1` is -4.24%.
The figure for `CCN1CCN(C(c2cccs2)C(C)NC(=S)Nc2cc(C)ccc2C)CC1` (centres unmarked) is -68.5%.
Take `CC1CCCCN1Cc1c[nH]c2ccccc12` (centres unmarked): the “hERG current change (%, negative = inhibition) at 10uM” value was -8.88%.
As for `CCc1ccc(NS(=O)(=O)c2ccc3[nH]c(=O)[nH]c3c2)cc1`, the “hERG current change (%, negative = inhibition) at 10uM” value came out at 12.1%.
With `COc1cccc(CNS(=O)(=O)/C=C/c2ccc(OC)c(OC)c2)c1`, the “hERG current change (%, negative = inhibition) at 10uM” value is recorded as 3.45%.
Take `CCCc1c(NC(=O)Nc2ccc(Cl)cc2Cl)cnn1-c1ccccc1`: the “hERG current change (%, negative = inhibition) at 10uM” value stood at 18.6%.
For the compound `COc1cccc(CN2CCNC(=O)C2CC(=O)N(C)C2CCCCC2)c1OC` (centres unmarked), the “hERG current change (%, negative = inhibition) at 10uM” value is 14.1%.
The figure for `CC(C)N=C1SCC(C)(/C=N/O)S1` (centres unmarked) is -9.68%; for `CC1=NNC(=O)C1CCC(=O)N/N=C/c1ccc(Cl)cc1Cl` (centres unmarked) it is 6.87%.
For `C=C(C)Cn1c(N)cc(=O)nc1SCC(=O)Nc1cccc(C(F)(F)F)c1`, the “hERG current change (%, negative = inhibition) at 10uM” value is 11.9%.
The figure for `CCNC(=O)Nc1ccc(-n2nc(C)c(C(=O)OCC)c2C)nc1` is 20.7%.
As for `CCCC(CCC)n1[nH]c(=O)c2c(C)cc(C)nc21`, the “hERG current change (%, negative = inhibition) at 10uM” value stood at 1.88%.
Turning to `Cc1cc(NC(=O)COC(=O)C(Cc2ccccc2)NC(=O)c2ccco2)no1` (centres unmarked), the “hERG current change (%, negative = inhibition) at 10uM” value came out at 3.3%.
Turning to `CCCCOc1c(Br)cc(/C=N/O)cc1OCC`, the “hERG current change (%, negative = inhibition) at 10uM” value turned out to be 7.18%.
`O=S(=O)(c1ccc2ccccc2c1)N(CC(O)COCc1ccco1)c1ccccc1` (centres unmarked): the “hERG current change (%, negative = inhibition) at 10uM” value is recorded as -26%.
As to `O=C(NNC(=O)C1CCN(S(=O)(=O)c2ccccc2)CC1)c1ccccc1O`, the “hERG current change (%, negative = inhibition) at 10uM” value is reported as -29.6%.
For `Cn1ccsc1=NC(=O)c1ccc(=O)[nH]c1`, the “hERG current change (%, negative = inhibition) at 10uM” value came out at 11.9%.
The figure for `O=C(O)c1sccc1Oc1ccc(NS(=O)(=O)c2cccc(F)c2)cc1` is 18.4%; for `O=C(CCc1ccc(S(=O)(=O)N2CCOCC2)cc1)NCCc1ccccn1` it is -5.77%.
